{"source": "PubChem BioAssay AID588342", "about": "(National Center for Advancing Translational Sciences (NCATS), 2011)", "note": "Among all 360,000 compounds or so, about 25,000 (6.9%) were called active. The shares of active, inactive and inconclusive entries below differ from those in the screen. Calls come from the whole dose curve; as a rule, active = well fitted inhibition curve with a large enough effect; inconclusive = small, poorly fitted or top-dose-only effect; inactive = flat fitted curve, though single readings scatter. Where the call is inconclusive, the potency comes from a doubtful curve fit. Potency is the fitted concentration of half-maximal effect; tags give direction and shape of the fitted curve."}
{"target": "Luciferin 4-monooxygenase (Photinus pyralis) (UniProt P08659)", "sequence (P08659 whole entry, looked up)": "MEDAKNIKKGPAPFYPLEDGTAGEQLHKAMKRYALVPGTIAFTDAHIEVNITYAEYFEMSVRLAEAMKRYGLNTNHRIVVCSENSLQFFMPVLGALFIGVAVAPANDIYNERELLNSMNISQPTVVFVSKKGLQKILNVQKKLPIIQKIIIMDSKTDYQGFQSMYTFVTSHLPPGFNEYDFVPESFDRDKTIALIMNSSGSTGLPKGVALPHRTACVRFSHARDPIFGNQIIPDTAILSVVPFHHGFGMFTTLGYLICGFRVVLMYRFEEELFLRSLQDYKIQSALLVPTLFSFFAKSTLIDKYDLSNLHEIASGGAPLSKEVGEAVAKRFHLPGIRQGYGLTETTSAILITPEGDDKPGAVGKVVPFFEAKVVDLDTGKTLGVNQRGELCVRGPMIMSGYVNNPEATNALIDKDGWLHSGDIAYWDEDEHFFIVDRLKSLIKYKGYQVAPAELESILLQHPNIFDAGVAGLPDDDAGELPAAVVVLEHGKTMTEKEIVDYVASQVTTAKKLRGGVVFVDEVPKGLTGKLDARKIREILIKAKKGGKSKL", "test": "qHTS profiling assay for firefly luciferase inhibitor/activator using purifed enzyme and Km concentrations of substrates (counterscreen for miR-21 project); note: nearly all actives have a fitted effect of over 55% in size;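 for activity change, negative = inhibition: plate controls were vehicle for no effect and reference inhibitor for full effect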", "conditions": "purified FLuc, luminescence inhibition; activity change, negative = inhibition: at 57.5 µM (top of the series)", "in_short": "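Purified P. pyralis luciferase (10nM final) with 10uM D-luciferin and 10uM ATP (Km levels) in 50mM Tris acetate pH 7.5, 10mM Mg acetate, 0.01% Tween-20, 0.05% BSA; qHTS 6-point titration, ~60 µM downward; luminescence read.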"}
{"smiles": "Cc1nc2sc(C(=O)c3ccccc3)c(N)c2c(C)c1C", "Potency": "inconclusive: 7.57 µM [inhibitor, partial curve]"}
{"smiles": "COc1cc(/C=N/Nc2ccc(C(=O)O)cc2)cc(OC)c1OC", "Potency": "active: 10.7 µM"}
{"smiles": "CN(C(=O)CO/N=C/c1ccc(OC(F)F)cc1)C1CCS(=O)(=O)C1", "note": "(configuration not stated)", "Potency": "inactive"}
{"smiles": "Cc1nnc(NC(=O)c2cccc(F)c2)s1", "Potency": "inconclusive: 33.8 µM [inhibitor, partial curve, poor fit]"}
{"smiles": "CC(C)OC(=O)c1c(-c2ccccc2)c(-c2ccccc2)nn(C)c1=O", "Potency": "inconclusive: 37.9 µM [inhibitor, partial curve, poor fit]"}
{"smiles": "Cc1nc(Nc2ccccc2F)c2oc3ccccc3c2n1", "Potency": "inconclusive: 13.5 µM [inhibitor, partial curve, poor fit]"}
{"smiles": "S=c1[nH]nc(-c2ccco2)n1-c1ccccc1Cl", "Potency": "inconclusive: 37.9 µM [inhibitor, single point]"}
{"smiles": "CCOC(=O)C1CCN(C(=O)/C=C/c2cccs2)CC1", "Potency": "inconclusive: 19 µM [inhibitor, single point]"}
{"smiles": "O=C(CCCN1C(=O)S/C(=C\\c2ccccc2)C1=O)NNC(=O)c1ccccc1O", "Potency": "inconclusive: 9.53 µM [inhibitor, partial curve, poor fit]"}
{"smiles": "CCn1c2ccccc2c2cc(/C=N/NC(=O)c3ccccc3C)ccc21", "Potency": "inconclusive: 6.01 µM [inhibitor, partial curve]"}
{"smiles": "Cc1ccc(/C(=N/Nc2nc3ccccc3s2)C2=C(O)c3ccccc3C2=O)cc1", "Potency": "inconclusive: 21.3 µM [inhibitor, single point]"}
{"smiles": "O=C(Cn1cc(C(F)(F)F)ccc1=O)N/N=C/c1ccccc1", "Potency": "inactive"}
{"smiles": "CCOC(=O)CN/C=C(\\C#N)c1ccccc1", "Potency": "inconclusive: 23.9 µM [inhibitor, partial curve, poor fit]"}
{"smiles": "CCOC(=O)C1(CC2CC2)CCN(C(=O)c2cc(C3CC3)nc3ccccc23)CC1", "Potency": "inconclusive: 23.9 µM [inhibitor, partial curve, poor fit]"}
{"smiles": "COc1ccc(C(=O)NCc2ccc3[nH]c(C)cc3c2)cc1OC", "Potency": "inactive"}
{"smiles": "Cc1ccc(-c2nc3ccccc3s2)cc1NC(=O)c1ccc2c(c1)OCO2", "Potency": "active: 4.78 µM"}
{"smiles": "O=C(/C(=C/O)N=Nc1ccccc1)c1cccs1", "Potency": "inconclusive: 21.3 µM [inhibitor, partial curve, poor fit]"}
{"smiles": "CNS(=O)(=O)c1cn(CC(=O)Nc2ccc(C(C)=O)cc2)cc1S(=O)(=O)NC", "Potency": "inactive"}
{"smiles": "Nc1ccc(S(=O)(=O)O)cn1", "Potency": "inactive"}
{"smiles": "Cc1ccc(CN2CCN(C3CCN(C(=O)Nc4ccc(C)cc4Cl)CC3)C(=O)C2=O)cc1", "Potency": "inactive"}
{"smiles": "COc1cc(OC)cc(C(=O)N2CCN(C(=O)COc3ccc4ccccc4c3)CC2)c1", "Potency": "active: 5.36 µM"}
{"smiles": "COCCOc1ccc(C(F)(F)F)cc1NC(=O)COC(=O)Cc1c[nH]c2ccccc12", "Potency": "inconclusive: 42.6 µM [inhibitor, partial curve, poor fit]"}
{"smiles": "O=C(c1ccc2oc(CCc3ccccc3)nc2c1)N1CC[C@H](O)C1", "Potency": "inconclusive: 21.3 µM [inhibitor, partial curve]"}
{"smiles": "Cc1ccc(CN2CCN(C3CCNCC3)C(=O)C2=O)cc1", "Potency": "inactive"}
{"smiles": "COc1ccc(S(N)(=O)=O)cc1C(=O)OCCCC(=O)c1ccccc1", "Potency": "inconclusive: 19 µM [inhibitor, partial curve, poor fit]"}
{"smiles": "COc1cccc(/C=N/Nc2ccc(S(=O)(=O)O)cc2)c1O", "Potency": "inconclusive: 26.9 µM [inhibitor, single point]"}
{"smiles": "CCOc1ccc(-c2nnc(-c3ccc(OC)cc3)o2)cc1", "Potency": "inconclusive: 6.01 µM [inhibitor, full curve]"}
{"smiles": "Cc1cc(=O)n2[nH]c(SCc3ccc(Cl)cc3)nc2n1", "Potency": "inconclusive: 37.9 µM [inhibitor, single point]"}
{"smiles": "COc1ccc2c(CC(=O)NNC(=O)c3cccs3)coc2c1", "Potency": "inconclusive: 30.1 µM [inhibitor, partial curve, poor fit]"}
{"smiles": "O=C(/C=C/c1ccc(OCCCF)cc1)NCc1cccc(Cl)c1", "Potency": "inconclusive: 23.9 µM [inhibitor, single point]"}
{"smiles": "Cc1ccc2nc(COc3ccc(N(C)S(=O)(=O)c4ccccc4)cc3)cc(=O)n2c1", "Potency": "inconclusive: 37.9 µM [inhibitor, partial curve, poor fit]"}
{"smiles": "CSc1nc2ccc(NC(=O)C3CCCO3)cc2s1", "note": "(configuration not stated)", "Potency": "active: 12 µM"}
{"smiles": "CCOC(=O)c1ccc(CNCc2ccccc2)cc1", "Potency": "inconclusive: 23.9 µM [inhibitor, partial curve]"}
{"smiles": "CSc1cccc(NC(=O)Nc2ccc(Cl)cc2)c1", "Potency": "inconclusive: 2.39 µM [inhibitor, full curve]"}
{"smiles": "Cc1ccc2c(c1)Oc1ccccc1C=C2C(=O)O", "Potency": "inconclusive: 23.9 µM [inhibitor, partial curve, poor fit]"}
{"smiles": "CC(=O)c1ccccc1NC(=O)COC(=O)c1ccc2c(c1)nc(C)n2-c1ccccc1", "Potency": "inconclusive: 9.53 µM [inhibitor, partial curve]"}
{"smiles": "CCCCOC(=O)c1ccc(N=Nc2c(C)c(C#N)c(O)[nH]c2=O)cc1", "Potency": "inconclusive: 9.53 µM [inhibitor, partial curve]"}
{"smiles": "Cc1nn(C)cc1CNC(=O)Nc1ccc(Br)cc1Cl", "Potency": "inactive"}
{"smiles": "COc1ccc(-c2cc3nc(C)cc(N)n3n2)cc1", "Potency": "active: 0.379 µM"}
{"smiles": "C=CCOc1c(OC)cc(/C=N/Nc2cccc(C(=O)O)c2)c(Br)c1Br", "Potency": "inconclusive: 30.1 µM [inhibitor, partial curve, poor fit]"}
{"smiles": "Cc1ccc(C(=O)CN2C(=O)NC3(CCc4ccccc43)C2=O)s1", "note": "(configuration not stated)", "activity change, negative = inhibition": "inconclusive: -39.8% [inhibitor]"}
{"smiles": "O=C(CCn1cccn1)N1CCCC(N2CCN(c3cccc(Cl)c3)CC2)C1", "note": "(configuration not stated)", "Potency": "inactive"}
{"smiles": "Nc1[nH][nH]c(=O)c1N=Nc1cccc(Cl)c1", "Potency": "inconclusive: 30.1 µM [inhibitor, partial curve, poor fit]"}
{"smiles": "O=C(CN1CCN(S(=O)(=O)c2cccc(Br)c2)CC1)N1CCCCC1", "Potency": "inactive"}
{"smiles": "Cc1ccc2nc(NC(=O)CSc3ncc(C(=O)Nc4ccc(F)cc4)c(=O)n3C)sc2c1", "Potency": "inactive"}
{"smiles": "O=C1C=C(N2CCOCC2)C2(CCCCC2)O1", "Potency": "inconclusive: 37.9 µM [inhibitor, single point]"}
{"smiles": "O=C(Nc1ccccn1)c1cccc(S(=O)(=O)N2CCOCC2)c1", "Potency": "inactive"}
{"smiles": "C/C(=N\\NC(=O)c1ccc2ccccc2c1)c1cccnc1", "Potency": "active: 19 µM"}
{"smiles": "Cc1csc(Nc2ccccc2)[n+]1C", "Potency": "inconclusive: 37.9 µM [inhibitor, partial curve, poor fit]"}
{"smiles": "COc1cc(C(=O)N=c2sc3ccccc3n2C)cc(OC)c1OC", "Potency": "inconclusive: 21.3 µM [inhibitor, partial curve, poor fit]"}
{"smiles": "CCCCCCC(=O)Nc1nc(C)c(-c2csc(Nc3cccc(OC)c3)n2)s1", "Potency": "inconclusive: 19 µM [inhibitor, partial curve]"}
{"smiles": "CCNc1ccc(C(=O)OCC(=O)NCCN2C(=O)CSC2=O)cc1[N+](=O)[O-]", "Potency": "inactive"}
{"smiles": "CC(C)c1ccc(CCNC(=O)CCNS(=O)(=O)c2ccc(Br)cc2)cc1", "Potency": "inactive"}
{"smiles": "CCSc1cc(C)nc2c(-c3ccccc3)c(C)nn12", "Potency": "inconclusive: 16.9 µM [inhibitor, partial curve, poor fit]"}
{"smiles": "N#C/C(=C\\c1cccc(Oc2ccc(C(F)(F)F)cc2[N+](=O)[O-])c1)c1nc2ccccc2[nH]1", "Potency": "inconclusive: 23.9 µM [inhibitor, partial curve, poor fit]"}
{"smiles": "CCOC(=O)C1CCN(C2=NC(=O)/C(=C/c3ccccc3OC)S2)CC1", "Potency": "inconclusive: 23.9 µM [inhibitor, partial curve, poor fit]"}
{"smiles": "COc1ccc2c(c1)CC/C(=C/c1ccncc1)C2=O", "Potency": "active: 13.5 µM"}
{"smiles": "CCc1ccc(C2=NN(C(C)=O)C(c3ccco3)C2)cc1", "note": "(configuration not stated)", "Potency": "active: 8.49 µM"}
{"smiles": "Cc1noc(C)c1C(=O)Nc1cccc2ncccc12", "Potency": "inactive"}
{"smiles": "Cc1ccccc1NC(=S)N/N=C/c1ccc(O)cc1O", "Potency": "active: 2.39 µM"}
{"smiles": "Cc1ccc2nc(NC(=O)CSCc3ccccc3)sc2c1", "Potency": "inconclusive: 21.3 µM [inhibitor, partial curve, poor fit]"}
{"smiles": "Nn1c(SCC(=O)Nc2ccc(F)cc2F)nnc1C1CCCCC1", "Potency": "inconclusive: 21.3 µM [inhibitor, single point]"}
{"smiles": "COc1ccccc1N1C(=O)CC(N2CCc3ccccc32)C1=O", "note": "(configuration not stated)", "Potency": "inconclusive: 33.8 µM [inhibitor, partial curve, poor fit]"}
{"smiles": "CCOC(=O)c1cc2c3ccccc3n(CC)c2nc1N", "Potency": "inactive"}
{"smiles": "COc1ccc(NC(=O)c2ccc(C(=O)c3ccccc3)o2)cc1", "Potency": "inconclusive: 2.39 µM [inhibitor, partial curve, poor fit]"}
{"smiles": "Cc1c(C(=O)Nc2cccc(-c3nc4ccccc4s3)c2)oc2ccccc12", "Potency": "inconclusive: 4.26 µM [inhibitor, partial curve, poor fit]"}
{"smiles": "CCOc1ccc2nc(N3CCCC(C(=O)Nc4cc(Cl)c(OC)cc4OC)C3)sc2c1", "note": "(configuration not stated)", "Potency": "active: 2.69 µM"}
{"smiles": "O=C(CSC(=S)N1CCCC1)c1cc(Br)cc(Br)c1O", "Potency": "inconclusive: 19 µM [inhibitor, partial curve]"}
{"smiles": "Cc1nc2ccc(S(=O)(=O)N(C)CC(=O)NCc3ccc(N(C)C)cc3)cc2s1", "Potency": "inactive"}
{"smiles": "O=C(Nc1nc2ccccc2[nH]1)c1ccc(Cl)c(S(=O)(=O)N2CCCC2)c1", "Potency": "active: 12 µM"}
{"smiles": "CCCCCCSc1nnc2c(n1)OC(C)Nc1ccc(Br)cc1-2", "note": "(configuration not stated)", "Potency": "inconclusive: 23.9 µM [inhibitor, single point]"}
{"smiles": "CS(=O)(=O)N1CCc2cc(C(=O)Nc3ccccc3Br)ccc21", "Potency": "inconclusive: 16.9 µM [inhibitor, partial curve]"}
